Assay results: PMC8938451
No constants are given. Whether binding was seen depends on the method and setting. For some assays here: Binding seen in cells or lysates may run through a third protein. Some entries that bind do so weakly or less than the wild type. For some assays here: Where a sequence is shown, tags or fusion partners need not be part of it. One block for each binder: values may come before it.

The chains behind the UniProt entries cited, without tags or fusion partners. Where a name states a change or a piece, a line headed by the entry shows the natural chain unless it says otherwise.
UniProt Q96T51: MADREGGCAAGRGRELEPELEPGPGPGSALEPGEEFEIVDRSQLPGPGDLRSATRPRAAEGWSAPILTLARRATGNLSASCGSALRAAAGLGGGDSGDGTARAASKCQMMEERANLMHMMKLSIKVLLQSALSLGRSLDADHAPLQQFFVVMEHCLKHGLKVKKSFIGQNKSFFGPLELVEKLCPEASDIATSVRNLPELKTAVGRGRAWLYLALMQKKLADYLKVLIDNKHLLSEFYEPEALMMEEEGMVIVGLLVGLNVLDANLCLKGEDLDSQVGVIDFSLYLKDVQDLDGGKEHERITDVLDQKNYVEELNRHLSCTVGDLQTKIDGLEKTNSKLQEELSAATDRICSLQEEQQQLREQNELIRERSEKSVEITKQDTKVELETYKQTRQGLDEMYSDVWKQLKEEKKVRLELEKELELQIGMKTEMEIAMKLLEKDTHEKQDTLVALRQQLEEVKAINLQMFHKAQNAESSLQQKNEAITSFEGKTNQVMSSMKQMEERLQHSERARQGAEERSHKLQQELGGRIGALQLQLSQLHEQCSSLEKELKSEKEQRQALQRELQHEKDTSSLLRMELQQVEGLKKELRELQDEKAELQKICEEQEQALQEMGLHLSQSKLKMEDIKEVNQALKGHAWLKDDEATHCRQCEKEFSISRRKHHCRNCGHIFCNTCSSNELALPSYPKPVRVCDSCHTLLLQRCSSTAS
UniProt Q9Y6G9: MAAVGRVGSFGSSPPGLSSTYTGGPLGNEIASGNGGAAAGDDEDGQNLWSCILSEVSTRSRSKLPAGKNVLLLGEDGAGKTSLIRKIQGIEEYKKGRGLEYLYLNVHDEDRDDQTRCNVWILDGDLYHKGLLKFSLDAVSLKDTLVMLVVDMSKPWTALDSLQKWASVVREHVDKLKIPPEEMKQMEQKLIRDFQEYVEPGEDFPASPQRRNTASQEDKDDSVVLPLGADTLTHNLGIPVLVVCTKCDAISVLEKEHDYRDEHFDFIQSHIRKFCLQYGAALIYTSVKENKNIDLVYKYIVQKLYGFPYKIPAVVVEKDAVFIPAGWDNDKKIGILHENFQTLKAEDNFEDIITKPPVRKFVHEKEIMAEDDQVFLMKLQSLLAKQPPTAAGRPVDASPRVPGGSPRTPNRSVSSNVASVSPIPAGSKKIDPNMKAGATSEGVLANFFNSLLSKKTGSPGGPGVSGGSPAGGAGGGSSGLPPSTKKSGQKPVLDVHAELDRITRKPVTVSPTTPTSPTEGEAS
UniProt P51149: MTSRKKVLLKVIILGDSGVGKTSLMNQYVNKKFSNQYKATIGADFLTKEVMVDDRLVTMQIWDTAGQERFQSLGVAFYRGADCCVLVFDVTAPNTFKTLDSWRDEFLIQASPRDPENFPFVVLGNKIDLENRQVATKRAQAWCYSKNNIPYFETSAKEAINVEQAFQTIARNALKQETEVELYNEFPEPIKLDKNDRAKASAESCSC
UniProt Q9NVJ2: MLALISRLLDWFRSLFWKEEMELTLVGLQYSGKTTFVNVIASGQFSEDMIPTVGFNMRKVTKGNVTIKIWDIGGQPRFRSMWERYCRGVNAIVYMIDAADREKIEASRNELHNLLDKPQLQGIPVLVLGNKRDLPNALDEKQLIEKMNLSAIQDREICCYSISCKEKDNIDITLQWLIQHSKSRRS

Key:
RUFY1-FLAG (human) = RUFY1-FLAG (human) (UniProt Q96T51); test: co-IP; lysates of HEK293T cells transfected with FLAG-tagged proteins, anti-FLAG magnetic agarose overnight at 4 °C (25 mM Tris-HCl pH 7.4, 0.15 M NaCl, 1 mM EDTA, 1% NP-40, 5% glycerol); immunoblot for endogenous ARL8A and ARL8B
RUFY3.1-FLAG (human) = target: T1, RUFY3.1-FLAG (human) (UniProt Q7L099); test: as above
T1 sequence: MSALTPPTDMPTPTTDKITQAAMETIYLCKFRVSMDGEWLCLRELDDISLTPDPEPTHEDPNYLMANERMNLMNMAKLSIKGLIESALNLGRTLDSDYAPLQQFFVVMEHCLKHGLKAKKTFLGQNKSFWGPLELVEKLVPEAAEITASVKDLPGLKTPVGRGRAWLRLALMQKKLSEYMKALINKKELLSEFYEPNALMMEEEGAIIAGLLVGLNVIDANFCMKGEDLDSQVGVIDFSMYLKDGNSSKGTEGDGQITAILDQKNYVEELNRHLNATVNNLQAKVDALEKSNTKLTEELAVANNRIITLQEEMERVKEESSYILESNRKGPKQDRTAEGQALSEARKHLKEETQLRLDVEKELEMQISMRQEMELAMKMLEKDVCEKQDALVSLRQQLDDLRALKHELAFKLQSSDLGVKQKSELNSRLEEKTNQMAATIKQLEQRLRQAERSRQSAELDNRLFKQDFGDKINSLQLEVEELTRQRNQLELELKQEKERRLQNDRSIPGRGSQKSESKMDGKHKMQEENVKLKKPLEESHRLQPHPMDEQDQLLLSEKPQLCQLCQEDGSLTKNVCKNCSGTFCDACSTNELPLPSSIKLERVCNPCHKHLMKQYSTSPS

RUFY4-FLAG (human) = target: T2, RUFY4-FLAG (human) (UniProt Q6ZNE9); test: as above
T2 sequence: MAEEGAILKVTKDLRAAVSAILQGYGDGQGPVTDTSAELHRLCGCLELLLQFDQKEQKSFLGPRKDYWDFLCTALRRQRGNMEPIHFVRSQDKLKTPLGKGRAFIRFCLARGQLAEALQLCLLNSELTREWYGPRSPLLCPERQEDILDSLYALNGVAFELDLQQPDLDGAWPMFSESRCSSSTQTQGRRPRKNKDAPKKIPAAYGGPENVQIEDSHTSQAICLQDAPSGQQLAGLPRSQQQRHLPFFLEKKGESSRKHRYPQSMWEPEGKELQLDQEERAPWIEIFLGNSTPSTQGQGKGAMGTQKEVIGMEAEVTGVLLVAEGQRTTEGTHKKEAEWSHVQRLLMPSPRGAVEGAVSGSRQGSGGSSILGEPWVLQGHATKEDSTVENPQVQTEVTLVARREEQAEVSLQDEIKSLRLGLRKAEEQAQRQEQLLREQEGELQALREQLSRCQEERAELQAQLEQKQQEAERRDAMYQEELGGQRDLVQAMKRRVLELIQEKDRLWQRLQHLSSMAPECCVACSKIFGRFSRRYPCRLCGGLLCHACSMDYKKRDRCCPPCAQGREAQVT

GST-DLIC1 = GST-DLIC1 (UniProt Q9Y6G9); test: pull-down; 20 ug purified GST-DLIC1 or GST-DLIC1-CT on glutathione-Sepharose incubated with 5 ug purified 6His-StrepII-sfGFP-RUFY3 for 1 h at 4 °C; immunoblot for GFP and GST; both purified
RAB7A-T22N-BirA*-HA-MAO = RAB7A-T22N-BirA*-HA-MAO (UniProt P51149); test: mitochondrial re-localisation assay (confocal microscopy); HeLa cells co-expressing GFP-tagged proteins with a mitochondrially targeted GTPase (MTS-BioID2-ARL8B or RAB7A-BirA*-HA-MAO); interaction inferred from re-localisation of the GFP protein to mitochondria; cells scored by eye
GST-ARL8B-T34N = GST-ARL8B-T34N (UniProt Q9NVJ2); test: pull-down; GST-ARL8B-Q75L (GTPγS) or GST-ARL8B-T34N (GDP) on glutathione-Sepharose incubated 1 h at 4 °C with lysates of transfected HEK293T cells (25 mM Tris-HCl pH 7.4, 150 mM NaCl, 1% NP-40, 8 mM MgCl2, 500 uM nucleotide); immunoblot for FLAG or GFP; only the target purified
GST-ARL8B-Q75L = GST-ARL8B-Q75L (UniProt Q9NVJ2); test: as above

B4: RUFY4-FLAG (protein, UniProt Q6ZNE9-2 1-571)
chain: T2 sequence
binding (GST-ARL8B-T34N): no binding
binding (GST-ARL8B-Q75L): binds

B5: RUFY4-GFP (protein, UniProt Q6ZNE9-2 1-571)
chain: T2 sequence
binding (RAB7A-T22N-BirA*-HA-MAO): no binding

Further lines, results first:

binding (RUFY1-FLAG (human)): no binding
binding (RUFY3.1-FLAG (human)): binds
binding (RUFY4-FLAG (human)): binds
B1: ARL8A, endogenous (protein, UniProt Q96BM9 1-186)
chain: MIALFNKLLDWFKALFWKEEMELTLVGLQYSGKTTFVNVIASGQFNEDMIPTVGFNMRKITKGNVTIKLWDIGGQPRFRSMWERYCRGVSAIVYMVDAADQEKIEASKNELHNLLDKPQLQGIPVLVLGNKRDLPGALDEKELIEKMNLSAIQDREICCYSISCKEKDNIDITLQWLIQHSKSRRS

binding (GST-DLIC1): binds
B2: 6His-StrepII-sfGFP-RUFY3 (protein, UniProt Q7L099-3 1-620)
chain: T1 sequence

binding (RAB7A-T22N-BirA*-HA-MAO): no binding
B3: RUFY3.1-GFP (protein, UniProt Q7L099-3 1-620)
chain: T1 sequence
